# Results as given in PubChem BioAssay AID624418 (National Center for Advancing Translational Sciences (NCATS), 2012).
# The campaign covered roughly 410,000 compounds. About 530 (0.13%) were called active. Inconclusive results, whose numbers are uncertain, are shown with a selection of clear calls. Calls follow the shape of the dose curve; as a rule, active = well fitted inhibition curve with a large enough effect; inconclusive = small, poorly fitted or top-dose-only effect, or another doubt; inactive = no such curve, though single readings can be large or run the other way. Potencies of inconclusive entries are doubtful fits and often do not repeat.
# Assay: qHTS of GLP-1 Receptor Inverse Agonists: Cytotox Screen
# Conditions: HEK293 cAMP-luciferase reporter cells, luminescence, 24 h; series mostly up to 38.3 µM
# Outline: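 Step one: seed cells (200 cells/uL, DMEM with 10% Nu serum, 1% pen-strep). Step two: 12-hour incubation at 37 deg C. Step three: pin 23 nL compound, incubate 24 hr. Step four: add luciferase reagent, read luminescence 12 min later.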
# Potency is read from the fitted curve at half-maximal effect.
row,Compound,Potency
1,O=C(NC1CCCCC1)C(c1ccc(F)cc1)N(CCc1ccccc1)C(=O)CN1C(=O)c2ccccc2S1(=O)=O (configuration not stated),inactive
2,O=C(CC1C(=O)N(c2ccccc2)C(=O)N1Cc1ccc(F)cc1)Nc1cccc(F)c1 (configuration not stated),inactive
3,COc1ccc(C(=O)NCC2(c3ccccc3)CCCC2)c(OC)c1,inactive
4,CCOc1ccc(Nc2nc(Cc3nnc(SCC(=O)NCc4ccco4)n3CC)cs2)cc1,"inconclusive: 8.91 µM [inhibitor, partial curve]"
5,Cc1ccc(N=C2NC(=O)/C(=C/c3cccn3C)S2)cc1,"inconclusive: 11.2 µM [inhibitor, partial curve]"
6,Cc1cccc(NC(=S)/N=C(\N)Nc2nc(C)c3ccccc3n2)c1,"inconclusive: 12.6 µM [inhibitor, single point]"
7,O=C(NCc1nc(-c2ccc(C(F)(F)F)cc2)no1)Nc1ccc(OC(F)(F)F)cc1,"inconclusive: 28.2 µM [inhibitor, single point]"
8,CC(C)c1nn2c(=O)cc(COC(=O)c3ccc(NC(=O)C4CCCCC4)cc3)nc2s1,inactive
9,C=CCNCC(=O)Nc1ccccc1SCC(=O)Nc1ccsc1C(=O)OC,"inconclusive: 8.91 µM [inhibitor, partial curve, poor fit]"
10,Cc1ccc(S(=O)(=O)Cc2ccc(C(=O)N3CCN(c4cccc(Cl)c4)CC3)o2)cc1,"inconclusive: 2.51 µM [inhibitor, full curve, poor fit]"
11,CC(C)C(=O)Nc1cccc(COc2ccc(CN(CCc3ccccc3)C(=O)OC(C)(C)C)cc2)c1,inactive
12,COCCNC(=O)c1cc2oc3ccccc3c2n1C,inactive
13,O=C(CN1CCC(Cc2ccccc2)CC1)NCCc1ccc(F)cc1,"inconclusive: 28.2 µM [inhibitor, single point]"
14,Cc1ccccc1OCC(=O)Nc1cccc(C(=O)OCc2cc(=O)n3c(C)csc3n2)c1,inactive
15,CCOc1ccc(C(=O)c2cc([N+](=O)[O-])ccc2Cl)cc1,"inconclusive: 28.2 µM [inhibitor, single point]"
16,COc1ccc(CNC(=O)c2cn(Cc3ccccc3F)c(=O)s2)cc1,inactive
17,COc1cccc(-c2c(C(=O)N/N=C/c3ccco3)nnn2-c2nonc2N)c1,inactive
18,Cc1cc(C)n(-c2ccc(C(=O)NC3=NCCS3)cc2)n1,inactive
19,O=C(c1ccc(C(F)(F)F)cc1)C1CCCN(C(=O)Cn2cnnn2)C1 (configuration not stated),"inconclusive: 17.8 µM [inhibitor, single point]"
20,COc1ccc(/C=N/NC(=O)c2nc(-c3ccccc3)cc(-c3ccccc3)n2)cc1O,"inconclusive: 5.62 µM [inhibitor, partial curve, poor fit]"
21,Cc1nc(C(=O)Nc2cc(F)cc(Cl)c2)sc1C1(C)CC(c2ccccc2)=NO1 (configuration not stated),"inconclusive: 28.2 µM [inhibitor, single point]"
22,CC(C)N(Cc1ccccc1)C(=S)NC(=O)C1(C)CC1(Cl)Cl (configuration not stated),"inconclusive: 5.01 µM [inhibitor, partial curve, poor fit]"
23,C=CC(=O)N1C/C(=C/c2ccccc2)C(=O)/C(=C\c2ccccc2)C1,"inconclusive: 3.55 µM [inhibitor, full curve]"

row,Compound,Potency
1,Cc1cnc(C(=O)Nc2ccccc2F)cn1,inactive
2,CC(=O)n1c(-c2ccccc2)c(-c2ccccc2)n(C)c1=O,"inconclusive: 28.2 µM [inhibitor, single point]"
3,CN(C(=O)Cn1cc(S(=O)(=O)Cc2ccccc2Cl)c2ccccc21)c1ccccc1,inactive
4,O=C(Cc1c(F)cccc1Cl)Nc1ncc([N+](=O)[O-])s1,"inconclusive: 17.8 µM [inhibitor, partial curve, poor fit]"
5,CCOc1ccc(S(=O)(=O)N2CCN(C(=O)c3oc4ccc(OC)cc4c3C)CC2)cc1,inactive
6,Cc1ccc(/C=N/Nc2ncc(Cl)cc2Cl)s1,"inconclusive: 12.6 µM [inhibitor, single point]"
7,Cn1cc(CN2CCN(Cc3ccccc3)CC2)c(-c2cccc(Cl)c2)n1,"inconclusive: 28.2 µM [inhibitor, single point]"
8,Cc1ccccc1NS(=O)(=O)c1ccc(C2CNC(=O)C2)cc1 (configuration not stated),inactive
9,CCCc1cnc2c(c1SCC(=O)Nc1ccc(C)c(Cl)c1)c(=O)n(C)c(=O)n2C,inactive
10,CN(Cc1ccccc1)C(=S)NC(=O)c1cccs1,"inconclusive: 3.98 µM [inhibitor, partial curve, poor fit]"
11,Cc1cccc(N=C2NC(=O)/C(=C/C=C/c3ccco3)S2)c1,"inconclusive: 14.1 µM [inhibitor, partial curve, poor fit]"
12,COc1ccc(C)cc1N(C(=O)c1snc(C(N)=O)c1N)C(C(=O)NC1CCCC1)c1ccc(F)cc1 (configuration not stated),"inconclusive: 28.2 µM [inhibitor, single point]"
13,O=c1cc(-c2ccccc2)nc2nc(-c3ccccc3)[nH]n12,inactive
14,CC(C)C1Nc2ccc(C(=O)NC3CCCCC3)cc2NC1=O (configuration not stated),"inconclusive: 14.1 µM [inhibitor, single point]"
15,COc1ccccc1-n1cnc2cc(NCc3cccs3)ccc21,"inconclusive: 17.8 µM [inhibitor, partial curve, poor fit]"
16,CCc1nnc2n1N=C(c1ccc(Cl)cc1Cl)CS2,"inconclusive: 3.98 µM [inhibitor, full curve, poor fit]"
17,Cc1ccc(S(=O)(=O)NC2c3cccc4cccc(c34)C2Sc2nncn2C)cc1 (configuration not stated),inactive
18,CCCCCCCCNC(=S)NCCN1CCCCC1,"inconclusive: 10 µM [inhibitor, partial curve, poor fit]"
19,CC(C)c1ccc(NC(=O)C2CCCN(S(=O)(=O)c3ccc4c(c3)C(C)(C)C(=O)N4C)C2)cc1 (configuration not stated),"inconclusive: 7.08 µM [inhibitor, partial curve, poor fit]"
20,CCOC(=O)c1ccc(Nc2ccc([N+](=O)[O-])cn2)cc1,"inconclusive: 11.2 µM [inhibitor, single point]"
21,CC1=CC(C)C2(CO)COC(c3ccccc3O)C1C2C (configuration not stated),"inconclusive: 20 µM [inhibitor, partial curve, poor fit]"
22,Cn1ncc2c(O/N=C(\N)c3ccc(C(F)(F)F)cc3)ncnc21,"inconclusive: 28.2 µM [inhibitor, single point]"
23,Cc1c(C(=O)Oc2cccc3cccnc23)cccc1[N+](=O)[O-],"inconclusive: 2.24 µM [inhibitor, full curve, poor fit]"

row,Compound,Potency
1,O=C(COc1ccccc1)Nc1nnc(-c2ccccc2)o1,"inconclusive: 5.01 µM [inhibitor, partial curve, poor fit]"
2,CC(C)(C)OC(=O)N1CCC2(CC1)Oc1ccc(F)cc1C(=O)C21CC(c2cccnc2)=NO1 (configuration not stated),"inconclusive: 0.891 µM [inhibitor, full curve, poor fit]"
3,CCN1C(C(=O)c2ccccc2)=C(OC(=O)c2ccccc2OC)c2ccccc2S1(=O)=O,"inconclusive: 31.6 µM [inhibitor, partial curve, poor fit]"
4,Nc1cc(N)c2c(c1)C(=O)c1ccccc1-2,"inconclusive: 10 µM [inhibitor, single point]"
5,CCN(CC)CCNC(=O)c1ccc2c(=O)n3nc(Nc4ccccc4OC)sc3nc2c1,"inconclusive: 11.2 µM [inhibitor, partial curve]"
6,O=C(CCCN1C(=O)c2ccccc2C1=O)Nc1ccccc1,inactive
7,CN(C)C(=S)Nc1ccc2ccccc2c1,"inconclusive: 28.2 µM [inhibitor, single point]"
8,COc1ccc(-c2csc(N(C)C(=O)c3ccco3)n2)cc1,inactive
9,CN(C)CCNC(=O)c1cccc2[nH]c(-c3ccncc3)nc12,"inconclusive: 10 µM [inhibitor, partial curve, poor fit]"
10,S=C(NNc1ccnc2cc(Cl)ccc12)Nc1ccccc1Cl,"inconclusive: 28.2 µM [inhibitor, single point]"
11,COc1ccc(C(CNC(=O)COc2ccc(Br)cc2F)N2CCCC2)cc1 (configuration not stated),inactive
12,CCC1CCCCN1CCCNC(=O)c1ccc2c(c1)N(Cc1ccc(F)cc1)C(=O)c1ccccc1S2=O (configuration not stated),"inconclusive: 11.2 µM [inhibitor, single point]"
13,O=C(Nc1ccccc1)Oc1cccc2cccnc12,"inconclusive: 3.16 µM [inhibitor, full curve, poor fit]"
14,Cc1ccc(-c2cc(C(=O)N/N=C/C(Br)=C/c3ccccc3)n[nH]2)o1,"inconclusive: 12.6 µM [inhibitor, single point]"
15,Cc1ccc(NC(=S)NCc2ccccc2)c(C)c1,"inconclusive: 22.4 µM [inhibitor, single point]"
16,CCOc1ccc(CCN2CN(C3CCCCC3)CNC2=S)cc1OCC,"inconclusive: 31.6 µM [inhibitor, single point]"
17,CC(=O)N1CCc2nc3sc(C(=O)Nc4ccc(Cl)cc4F)c(N)c3c(C(F)(F)F)c2C1,inactive
18,CCN(CC)c1ccc(NC(=O)/C=C\c2ccccc2Cl)cc1,"inconclusive: 8.91 µM [inhibitor, single point]"
19,COc1ccc(Cn2c(C(=O)O)c(CNCc3ccc(C)o3)c3ccc(C)cc32)cc1,"inconclusive: 28.2 µM [inhibitor, single point]"
20,CC1(C)CC(=O)C(C(C2=C(O)CC(C)(C)CC2=O)c2ccc(Br)s2)C(=O)C1 (configuration not stated),"inconclusive: 12.6 µM [inhibitor, single point]"
21,O=C1CCCN1CCCNc1ncnc2sccc12,"inconclusive: 20 µM [inhibitor, single point]"
